Laboratory results reported in the supplement of paper PMC8728848.
This is one part of the list.

Columns and labels:
Experiment in all cases: glycan array binding signal (z-score within array); higher = stronger binding
Settings in all cases: glycan notation: IUPAC condensed, linker removed
[1] = target: Fuc(a1-2)Gal(b1-4)GlcNAc(b1-3)Gal(b1-4)GlcNAc(b1-3)Gal(b1-4)GlcNAc
Summary of the method: (§1)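 Arrays were curated from the Consortium for Functional Glycomics database, 3228 in total, and kept only where the protein sequence was available. Binding is expressed as a within-array Z-score. This score was averaged across arrays of the same protein sequence at different concentrations or buffers and across linkers, and negative values can be read as non-binding.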

[2] = target: Fuc(a1-2)Gal(b1-4)GlcNAc(b1-3)GalNAc
Summary of the method: as §1

[3] = target: Fuc(a1-2)Gal(b1-4)GlcNAc(b1-3)[Fuc(a1-2)Gal(b1-4)GlcNAc(b1-6)]GalNAc
Summary of the method: as §1

[4] = target: Fuc(a1-2)Gal(b1-4)GlcNAc(b1-3)[Fuc(a1-3)[Gal(b1-4)]GlcNAc(b1-6)]Gal(b1-4)Glc
Summary of the method: as §1

[5] = target: Fuc(a1-2)Gal(b1-4)GlcNAc(b1-6)GalNAc
Summary of the method: as §1

[6] = target: Fuc(a1-2)Gal(b1-4)GlcNAc6S
Summary of the method: as §1

[7] = target: Fuc(a1-2)Gal(b1-4)[Fuc(a1-3)]GlcNAc
Summary of the method: as §1

[8] = target: Fuc(a1-2)Gal(b1-4)[Fuc(a1-3)]GlcNAc(b1-2)Man(a1-3)[Fuc(a1-2)Gal(b1-4)[Fuc(a1-3)]GlcNAc(b1-2)Man(a1-6)]Man(b1-4)GlcNAc(b1-4)[Fuc(a1-6)]GlcNAc
Summary of the method: as §1

[9] = target: Fuc(a1-2)Gal(b1-4)[Fuc(a1-3)]GlcNAc(b1-2)[Fuc(a1-2)Gal(b1-4)[Fuc(a1-3)]GlcNAc(b1-4)]Man(a1-3)[Fuc(a1-2)Gal(b1-4)[Fuc(a1-3)]GlcNAc(b1-2)Man(a1-6)]Man(b1-4)GlcNAc(b1-4)GlcNAc
Summary of the method: as §1

[10] = target: Fuc(a1-2)Gal(b1-4)[Fuc(a1-3)]GlcNAc(b1-3)Gal(b1-4)[Fuc(a1-3)]GlcNAc
Summary of the method: as §1

[11] = target: Fuc(a1-2)Gal(b1-4)[Fuc(a1-3)]GlcNAc(b1-3)Gal(b1-4)[Fuc(a1-3)]GlcNAc(b1-3)Gal(b1-4)[Fuc(a1-3)]GlcNAc
Summary of the method: as §1

[12] = target: Fuc(a1-2)Gal(b1-4)[Fuc(a1-3)]GlcNAc(b1-3)GalNAc
Summary of the method: as §1

[13] = target: Fuc(a1-2)Gal(b1-4)[Fuc(a1-3)]GlcNAc(b1-3)[Neu5Ac(a2-6)Gal(b1-4)GlcNAc(b1-6)]Gal(b1-4)Glc
Summary of the method: as §1

[14] = target: Fuc(a1-2)Gal3S(b1-4)GlcNAc
Summary of the method: as §1

[15] = target: Fuc(a1-2)Gal6S(b1-3)GlcNAc
Summary of the method: as §1

[16] = target: Fuc(a1-2)Gal6S(b1-3)GlcNAc6S
Summary of the method: as §1

Fuc(a1-2)Gal6S(b1-4)Glc = target: Fuc(a1-2)Gal6S(b1-4)Glc
Summary of the method: as §1

[17] = target: Fuc(a1-2)Gal6S(b1-4)Glc6S
Summary of the method: as §1

Fuc(a1-2)[Gal(a1-3)]Gal = target: Fuc(a1-2)[Gal(a1-3)]Gal
Summary of the method: as §1

[18] = target: Fuc(a1-2)[Gal(a1-3)]Gal(b1-3)GalNAc
Summary of the method: as §1

[19] = target: Fuc(a1-2)[Gal(a1-3)]Gal(b1-3)GalNAc(b1-3)Gal(a1-4)Gal(b1-4)Glc
Summary of the method: as §1

[20] = target: Fuc(a1-2)[Gal(a1-3)]Gal(b1-3)GlcNAc
Summary of the method: as §1

[21] = target: Fuc(a1-2)[Gal(a1-3)]Gal(b1-3)GlcNAc(b1-2)Man(a1-3)[Fuc(a1-2)[Gal(a1-3)]Gal(b1-3)GlcNAc(b1-2)Man(a1-6)]Man(b1-4)GlcNAc(b1-4)GlcNAc
Summary of the method: as §1

[22] = target: Fuc(a1-2)[Gal(a1-3)]Gal(b1-3)GlcNAc(b1-2)Man(a1-3)[Fuc(a1-2)[Gal(a1-3)]Gal(b1-3)GlcNAc(b1-2)Man(a1-6)]Man(b1-4)GlcNAc(b1-4)[Fuc(a1-6)]GlcNAc
Summary of the method: as §1

[23] = target: Fuc(a1-2)[Gal(a1-3)]Gal(b1-3)GlcNAc(b1-3)GalNAc
Summary of the method: as §1

[24] = target: Fuc(a1-2)[Gal(a1-3)]Gal(b1-3)GlcNAc(b1-6)GalNAc
Summary of the method: as §1

[25] = target: Fuc(a1-2)[Gal(a1-3)]Gal(b1-4)Glc
Summary of the method: as §1

[26] = target: Fuc(a1-2)[Gal(a1-3)]Gal(b1-4)GlcNAc
Summary of the method: as §1

[27] = target: Fuc(a1-2)[Gal(a1-3)]Gal(b1-4)GlcNAc(b1-2)Man
Summary of the method: as §1

[28] = target: Fuc(a1-2)[Gal(a1-3)]Gal(b1-4)GlcNAc(b1-2)Man(a1-3)[Fuc(a1-2)[Gal(a1-3)]Gal(b1-4)GlcNAc(b1-2)Man(a1-6)]Man(b1-4)GlcNAc(b1-4)GlcNAc
Summary of the method: as §1

B1: TIM1 (protein)
chain: ADGIQSVKVGGEAGPSVTLPCHYSGAVTSMCWNRGSCSLFTCQNGIVWTNGTHVTYRKDTRYKLLGDLSRRDVSLTIENTAVSDSGVYCCRVEHRGWFNDMKITVSLEIVPPHHHHHH
glycan array binding signal (z-score) [1]: -0.132 | glycan array binding signal (z-score) [2]: -0.169 | glycan array binding signal (z-score) [3]: -0.134 | glycan array binding signal (z-score) [4]: -0.219 | glycan array binding signal (z-score) [5]: -0.15 | glycan array binding signal (z-score) [6]: -0.102 | glycan array binding signal (z-score) [7]: -0.107 | glycan array binding signal (z-score) [8]: 0.121 | glycan array binding signal (z-score) [9]: -0.074 | glycan array binding signal (z-score) [10]: -0.115 | glycan array binding signal (z-score) [11]: -0.198 | glycan array binding signal (z-score) [12]: 0.887 | glycan array binding signal (z-score) [13]: -0.276 | glycan array binding signal (z-score) [14]: -0.264 | glycan array binding signal (z-score) [15]: -0.216 | glycan array binding signal (z-score) [16]: 1.48 | glycan array binding signal (z-score) (Fuc(a1-2)Gal6S(b1-4)Glc): -0.035 | glycan array binding signal (z-score) [17]: -0.162 | glycan array binding signal (z-score) (Fuc(a1-2)[Gal(a1-3)]Gal): -0.147 | glycan array binding signal (z-score) [18]: -0.248 | glycan array binding signal (z-score) [19]: -0.3 | glycan array binding signal (z-score) [20]: -0.196 | glycan array binding signal (z-score) [21]: -0.219 | glycan array binding signal (z-score) [22]: -0.217 | glycan array binding signal (z-score) [23]: -0.158 | glycan array binding signal (z-score) [24]: -0.148 | glycan array binding signal (z-score) [25]: -0.183 | glycan array binding signal (z-score) [26]: -0.192 | glycan array binding signal (z-score) [27]: -0.225 | glycan array binding signal (z-score) [28]: -0.183
